# According to the BET-seq Pho4 binding data (Le et al. 2018):
# This is one part of the list. The energies were worked out here from pooled read counts, against the library average; single values are noisy.
# Target: T1, Pho4 (S. cerevisiae) (UniProt P07270)
# T1 sequence: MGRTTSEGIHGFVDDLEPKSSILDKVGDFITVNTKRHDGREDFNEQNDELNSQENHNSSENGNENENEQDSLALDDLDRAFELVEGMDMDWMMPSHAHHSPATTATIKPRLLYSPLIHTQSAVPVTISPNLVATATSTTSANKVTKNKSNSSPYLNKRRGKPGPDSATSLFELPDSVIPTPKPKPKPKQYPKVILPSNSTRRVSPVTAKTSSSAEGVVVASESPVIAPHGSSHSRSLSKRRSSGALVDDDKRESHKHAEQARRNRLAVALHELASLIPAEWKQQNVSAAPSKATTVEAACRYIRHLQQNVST
# Experiment: relative binding free energy (BET-seq); higher = weaker binding
# Conditions: reference: library average
row,Sequence,relative binding free energy
1,CGTTGCACGTGGGGGA,-0.2 kcal/mol
2,TTGTTCACGTGTCTGA,0.25 kcal/mol
3,TTTGGCACGTGAACGT,0.05 kcal/mol
4,TGTTTCACGTGCGTTT,0.38 kcal/mol
5,ATCAGCACGTGTTGGG,-0.07 kcal/mol
6,TTTGGCACGTGCATTG,-0.29 kcal/mol
7,TATTACACGTGGACGG,0.11 kcal/mol
8,GGTTTCACGTGGGTCG,0.29 kcal/mol
9,TGGATCACGTGATTTC,0.46 kcal/mol
10,TCGTACACGTGTGTAG,0.06 kcal/mol
11,GGCTTCACGTGAAGTT,0.32 kcal/mol
12,GTGGTCACGTGGCTCG,0.09 kcal/mol
13,GTAAACACGTGGGAGG,0.09 kcal/mol
14,GAGGGCACGTGAACTG,0.27 kcal/mol
15,CGATTCACGTGTGGGG,0.39 kcal/mol
16,ATTATCACGTGGTTTC,0.15 kcal/mol
17,GTGTTCACGTGGCGCT,0.15 kcal/mol
18,AGGCGCACGTGTAGGT,0.01 kcal/mol
19,CGTGTCACGTGTGTGT,0.09 kcal/mol
20,GGGAGCACGTGATGTA,0.12 kcal/mol
21,GGGGTCACGTGGATCA,0.16 kcal/mol
22,GGATCCACGTGTGGGA,0.2 kcal/mol
23,ATAAGCACGTGGAGGT,-0.07 kcal/mol
24,TAGCGCACGTGTATGT,-0.09 kcal/mol
25,GGGTACACGTGTGGCC,0.13 kcal/mol

row,Sequence,relative binding free energy
1,ATTGTCACGTGTGGTA,0.13 kcal/mol
2,TAGGGCACGTGGATAG,-0.1 kcal/mol
3,TGTTGCACGTGATTGC,0.13 kcal/mol
4,TGTTACACGTGGACTT,0.06 kcal/mol
5,TGGCGCACGTGTAATA,0.08 kcal/mol
6,TTGGTCACGTGTTTCG,0.04 kcal/mol
7,GGCGTCACGTGTGAAT,0.16 kcal/mol
8,TTGTGCACGTGTGTGG,-0.01 kcal/mol
9,AATGGCACGTGTTAGG,-0.11 kcal/mol
10,CTGGTCACGTGAGGTA,0.2 kcal/mol
11,AGTATCACGTGTATTT,0.13 kcal/mol
12,CGGCTCACGTGGTGGT,0.13 kcal/mol
13,TGGGGCACGTGTAATC,0.08 kcal/mol
14,TGATCCACGTGGTGTA,-0.13 kcal/mol
15,ACGGGCACGTGGAAGG,-0.09 kcal/mol
16,ATTCGCACGTGTGAGG,0.06 kcal/mol
17,TGTTGCACGTGGCTAA,-0.1 kcal/mol
18,TCTGGCACGTGGAGGC,0.09 kcal/mol
19,ATTTCCACGTGTATGG,0.03 kcal/mol
20,TGGGTCACGTGAATTA,0.23 kcal/mol
21,TTTAGCACGTGTGGAT,0.06 kcal/mol
22,GGTTGCACGTGGCCAG,-0.05 kcal/mol
23,GTGTTCACGTGAGTGA,0.47 kcal/mol
24,TCGTTCACGTGTTTCA,0.32 kcal/mol
25,ACCGTCACGTGTGGGT,0.15 kcal/mol

row,Sequence,relative binding free energy
1,AGGGGCACGTGGTTTC,-0.2 kcal/mol
2,CTTCTCACGTGGGGGG,0.08 kcal/mol
3,AGTTGCACGTGTTTTG,0.03 kcal/mol
4,AATTACACGTGGTGTT,-0.13 kcal/mol
5,TCAGGCACGTGGCGTT,-0.2 kcal/mol
6,TTAGTCACGTGGACGG,0.11 kcal/mol
7,GTGTGCACGTGATGTG,0.17 kcal/mol
8,TGGTACACGTGTAATT,0.04 kcal/mol
9,GTTAACACGTGGTAAA,0.15 kcal/mol
10,TCTTTCACGTGATATA,0.43 kcal/mol
11,TGTAGCACGTGCTGTG,-0.17 kcal/mol
12,GTTTGCACGTGCGTCG,-0.11 kcal/mol
13,TTGCGCACGTGATGGC,-0.01 kcal/mol
14,GTGTACACGTGAGCGT,0.15 kcal/mol
15,ATTGCCACGTGGTTTA,-0.17 kcal/mol
16,AACGTCACGTGTAGGT,0.16 kcal/mol
17,TTTAGCACGTGTTGTT,-0.03 kcal/mol
18,TGTGGCACGTGATGAT,0.02 kcal/mol
19,TAGGGCACGTGTAGGT,-0.08 kcal/mol
20,CATATCACGTGAGGGT,0.45 kcal/mol
21,TAAATCACGTGTGTGC,0.08 kcal/mol
22,GTGTCCACGTGATTGG,0.17 kcal/mol
23,CAGAGCACGTGTAGTG,-0.07 kcal/mol
24,CGAAGCACGTGGGCGG,-0.19 kcal/mol
25,GTTTACACGTGATGCT,0.17 kcal/mol

row,Sequence,relative binding free energy
1,GGGATCACGTGCGGTG,0.15 kcal/mol
2,AAAAACACGTGTTTTT,0.03 kcal/mol
3,GGTGTCACGTGATCTT,0.29 kcal/mol
4,AATTACACGTGAGGAA,0.53 kcal/mol
5,CTGCGCACGTGGGTTG,-0.34 kcal/mol
6,GTTATCACGTGGTCGT,0.1 kcal/mol
7,TTTGACACGTGGAATC,0.19 kcal/mol
8,TTGTACACGTGTGGCG,0.08 kcal/mol
9,TGTGTCACGTGACGGA,0.12 kcal/mol
10,TAGGCCACGTGTCGGT,-0.04 kcal/mol
11,AAAGGCACGTGATAGG,-0.09 kcal/mol
12,CAGGTCACGTGGAGAG,0.06 kcal/mol
13,GTGCTCACGTGTTGAG,0.26 kcal/mol
14,GTAAGCACGTGCTGGA,-0.01 kcal/mol
15,GTCAGCACGTGGGTGA,-0.12 kcal/mol
16,AAAGGCACGTGAGCGG,0.09 kcal/mol
17,CATTGCACGTGATATG,-0.03 kcal/mol
18,TGGTGCACGTGATAAG,0.16 kcal/mol
19,AGGTTCACGTGCATAT,0.06 kcal/mol
20,ATTGACACGTGGAAGA,0.01 kcal/mol
21,ATGGACACGTGTGTTC,-0.02 kcal/mol
22,ATTGACACGTGGGTGA,-0.12 kcal/mol
23,TGGTTCACGTGGGCGC,0.17 kcal/mol
24,TATCACACGTGGGGAG,-0.05 kcal/mol
25,GCTCTCACGTGGGAGG,0.19 kcal/mol

row,Sequence,relative binding free energy
1,ATTGGCACGTGTACGT,-0.06 kcal/mol
2,AGTTTCACGTGTAAGT,0.23 kcal/mol
3,GACGACACGTGGGTGG,-0.04 kcal/mol
4,TATTACACGTGCGGAG,0.13 kcal/mol
5,TTTTTCACGTGAAAAT,0.31 kcal/mol
6,GTGGTCACGTGATGAG,0.32 kcal/mol
7,GGAATCACGTGGTTGG,0.21 kcal/mol
8,GGCCGCACGTGTGTTG,0.11 kcal/mol
9,ATTGGCACGTGAATGA,0.05 kcal/mol
10,GTTAACACGTGGGTCG,0.11 kcal/mol
11,GGTATCACGTGCATGT,0.04 kcal/mol
12,CTTTGCACGTGGTAAG,-0.01 kcal/mol
13,AGGTACACGTGGAGCG,0.09 kcal/mol
14,TTCTCCACGTGTTGTG,0.1 kcal/mol
15,GAGGTCACGTGTTATT,0.24 kcal/mol
16,ACAGTCACGTGAAGGT,0.31 kcal/mol
17,TCATGCACGTGCGTTG,-0.19 kcal/mol
18,TCTGTCACGTGAGGTT,0.25 kcal/mol
19,TTGTCCACGTGTTGGC,0.07 kcal/mol
20,GCTTTCACGTGTAGTT,0.35 kcal/mol
21,TGTCACACGTGTAATG,0.06 kcal/mol
22,TGTTTCACGTGTAGCG,0.4 kcal/mol
23,TGATACACGTGATGAG,0.18 kcal/mol
24,CATGTCACGTGCGGTG,0.07 kcal/mol
25,ACATTCACGTGATGTG,0.34 kcal/mol

row,Sequence,relative binding free energy
1,AGCCTCACGTGGTTGG,0.12 kcal/mol
2,TGCGCCACGTGGAGGT,-0.2 kcal/mol
3,TTCGGCACGTGTGATT,-0.02 kcal/mol
4,CACAGCACGTGGGGTT,-0.2 kcal/mol
5,GTGTGCACGTGCGTTA,-0.07 kcal/mol
6,CGTATCACGTGATTTG,0.18 kcal/mol
7,ATGATCACGTGTTCGA,0.15 kcal/mol
8,TTAGTCACGTGCGTAG,0.18 kcal/mol
9,TCGAGCACGTGCGGGA,-0.02 kcal/mol
10,TGGGTCACGTGTGAAG,0.35 kcal/mol
11,GGAGGCACGTGGACGA,-0.02 kcal/mol
12,GTGGGCACGTGAAACG,0.16 kcal/mol
13,GTGTACACGTGGATTC,0.24 kcal/mol
14,GTTGACACGTGATTTT,0.26 kcal/mol
15,GTTATCACGTGTTTTA,0.2 kcal/mol
16,TTGATCACGTGGTCTG,-0.03 kcal/mol
17,TGTCGCACGTGGTTAG,-0.05 kcal/mol
18,ATTGACACGTGAGTGA,0.16 kcal/mol
19,ATAGTCACGTGCTATT,0 kcal/mol
20,TTGTTCACGTGGACGA,0.41 kcal/mol
21,AATGTCACGTGGCTAG,0.01 kcal/mol
